From paper PMC4336329 (PLoS ONE, 2015)
About 2,200 (0.71%) of roughly 310,000 compounds showed an effect of 50% or more. The effect is printed as a negative number. Some of the results follow.

What follows are compounds tested against human ether-à-go-go-related gene (hERG) potassium channel (human, UniProt Q12809) (assay: primary screen, population patch clamp on CHO cells stably expressing hERG).
Sequence of human ether-à-go-go-related gene (hERG) potassium channel (Q12809 whole entry, looked up): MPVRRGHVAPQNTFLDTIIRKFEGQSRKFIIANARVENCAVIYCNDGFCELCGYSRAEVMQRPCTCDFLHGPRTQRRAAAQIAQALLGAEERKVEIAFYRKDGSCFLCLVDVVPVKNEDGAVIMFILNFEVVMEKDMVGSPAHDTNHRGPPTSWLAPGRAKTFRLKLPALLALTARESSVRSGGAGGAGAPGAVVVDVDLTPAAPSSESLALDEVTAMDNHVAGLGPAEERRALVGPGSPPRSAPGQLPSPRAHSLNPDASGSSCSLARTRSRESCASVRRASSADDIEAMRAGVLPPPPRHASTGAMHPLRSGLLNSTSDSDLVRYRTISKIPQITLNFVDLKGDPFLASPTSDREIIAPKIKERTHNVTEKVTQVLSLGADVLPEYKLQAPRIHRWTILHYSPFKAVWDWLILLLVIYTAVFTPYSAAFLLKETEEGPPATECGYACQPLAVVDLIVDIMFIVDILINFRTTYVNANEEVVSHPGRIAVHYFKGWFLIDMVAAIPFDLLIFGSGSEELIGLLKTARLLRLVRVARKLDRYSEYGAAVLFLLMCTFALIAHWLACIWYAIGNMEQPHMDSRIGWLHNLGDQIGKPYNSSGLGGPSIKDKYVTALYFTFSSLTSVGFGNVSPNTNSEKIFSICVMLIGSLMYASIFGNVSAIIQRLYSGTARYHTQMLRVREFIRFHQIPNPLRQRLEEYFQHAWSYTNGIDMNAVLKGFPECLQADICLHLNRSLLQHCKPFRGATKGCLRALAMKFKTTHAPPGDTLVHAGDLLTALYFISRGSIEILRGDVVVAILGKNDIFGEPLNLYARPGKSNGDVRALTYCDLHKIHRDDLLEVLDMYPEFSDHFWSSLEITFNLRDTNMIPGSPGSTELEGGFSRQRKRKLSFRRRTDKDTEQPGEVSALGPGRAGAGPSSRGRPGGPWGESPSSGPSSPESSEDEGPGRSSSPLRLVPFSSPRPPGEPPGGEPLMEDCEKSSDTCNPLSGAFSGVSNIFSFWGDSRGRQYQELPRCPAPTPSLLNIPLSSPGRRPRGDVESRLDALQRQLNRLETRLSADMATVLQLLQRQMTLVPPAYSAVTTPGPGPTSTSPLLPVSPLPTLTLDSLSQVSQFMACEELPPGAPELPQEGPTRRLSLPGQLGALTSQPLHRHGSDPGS

How did the “hERG current change (%, negative = inhibition) at 1uM” value turn out when `O=C(Cc1ccc(S(=O)(=O)N2CCOCC2)s1)Nc1ccc(N2CCOCC2)cc1` was run?
The value was 21.8%.

For `Cc1ccc(NC(=O)/C(Cl)=C/c2ccccc2)cc1C`, which “hERG current change (%, negative = inhibition) at 1uM” value is on record?
Its value is 2.13%.

How did the “hERG current change (%, negative = inhibition) at 1uM” value turn out when `CCCOc1cc(CN2CCCCC2)cc(C(C)=O)c1.Cl` was run?
The value was 7.46%.

`CCN(CC)CCCN(C(=O)c1ccco1)c1nc(-c2ccc(C)cc2)cs1.Cl` was tested. Which “hERG current change (%, negative = inhibition) at 1uM” value did it give?
The value was -90.2%.

How did the “hERG current change (%, negative = inhibition) at 1uM” value turn out when `COCC(C)n1c(=O)sc2ccccc2c1=O` (centres unmarked) was run?
Its value is -1.66%.

For `CC(C)(C)N1CC(C(=O)Nc2ccc(S(N)(=O)=O)cc2)CC1=O` (centres unmarked), which “hERG current change (%, negative = inhibition) at 1uM” value is on record?
Its value is 9.73%.

With `Cc1cc(NC(=O)CSCC(=O)Nc2nc3ccccc3[nH]2)no1` as the compound, how does the “hERG current change (%, negative = inhibition) at 1uM” value read?
The value was 17.4%.

With `COc1ccc2oc(-c3ccc(C)c(NC(=O)c4ccc(N5CCOCC5)c([N+](=O)[O-])c4)c3)nc2c1` as the compound, how does the “hERG current change (%, negative = inhibition) at 1uM” value read?
The value was -5.93%.

`CCCN(CCC)CCCn1c(=O)[nH]c2ccccc21.Cl` was tested. Which “hERG current change (%, negative = inhibition) at 1uM” value did it give?
The value was 14.2%.

`CCOC(=O)COc1c(OC)cc(Cl)cc1C1Nc2ccccc2C(=O)N1c1ccccc1` (centres unmarked) was tested. Which “hERG current change (%, negative = inhibition) at 1uM” value did it give?
Its value is 10.4%.

With `Cc1ccc(S(=O)(=O)N2CCCNCC2)cc1` as the compound, how does the “hERG current change (%, negative = inhibition) at 1uM” value read?
Its value is 13.1%.

With `COc1ccc(S(=O)(=O)NCC(c2ccc3c(c2)OCO3)N2CCN(c3ccccc3)CC2)cc1` (centres unmarked) as the compound, how does the “hERG current change (%, negative = inhibition) at 1uM” value read?
Its value is 9.76%.

How did the “hERG current change (%, negative = inhibition) at 1uM” value turn out when `COc1ccc(CCNC(=O)CN2C(=O)COc3ccc(S(=O)(=O)N4CCOCC4)cc32)c(OC)c1` was run?
Its value is 4.22%.

How did the “hERG current change (%, negative = inhibition) at 1uM” value turn out when `COc1ccc(N2CC(C(=O)NCCC3=CCCCC3)CC2=O)cc1` (centres unmarked) was run?
Its value is 7.66%.

For `O=C(COC(=O)c1cc(Br)ccc1Cl)NC(=O)NCc1ccccc1`, which “hERG current change (%, negative = inhibition) at 1uM” value is on record?
The value was 10.1%.

`Cc1cc(C)nc(-n2nc(C)cc2NC(=O)c2cccc(S(=O)(=O)N(C)C)c2)n1` was tested. Which “hERG current change (%, negative = inhibition) at 1uM” value did it give?
Its value is 8.89%.

Which “hERG current change (%, negative = inhibition) at 1uM” value does the source give for `CCC(CNc1cc(OC)cc2cccnc12)NC1CCCCC1` (centres unmarked) here?
The value was 1.83%.

For `Cc1nc(-c2ccccc2)nc2sc(C(=O)c3ccc(F)cc3)c(N)c12`, which “hERG current change (%, negative = inhibition) at 1uM” value is on record?
The value was 5.58%.

`CCOc1ccc(Nc2nc(N3CCCCC3)nc(N3CCCCC3)n2)cc1` was tested. Which “hERG current change (%, negative = inhibition) at 1uM” value did it give?
Its value is 2.11%.

`COc1ccc(N(C(=O)Cn2nnc3ccccc32)C(C(=O)NC(C)(C)C)c2ccc(OC)c(O)c2)cc1` (centres unmarked) was tested. Which “hERG current change (%, negative = inhibition) at 1uM” value did it give?
The value was 14.6%.

How did the “hERG current change (%, negative = inhibition) at 1uM” value turn out when `CCN(CC)C(=O)c1ccc(S(=O)(=O)N2CCC(c3nc4ccccc4s3)CC2)cc1` was run?
Its value is 2.13%.

For `CCOc1ccc(OCC(=O)Nc2ccc(OC)cc2[N+](=O)[O-])cc1`, which “hERG current change (%, negative = inhibition) at 1uM” value is on record?
The value was 8.89%.

With `COc1cccc(NC(=O)C2CCC(CNS(=O)(=O)c3cccs3)CC2)c1` (centres unmarked) as the compound, how does the “hERG current change (%, negative = inhibition) at 1uM” value read?
The value was 16.1%.
